Assay results from publication PMC12040169 (PLOS Biology, 2025).
Some of the results follow.

test system: T1, C. trachomatis L2/434/Bu expressing GFP (CTL2-GFP); design: species or system HeLa; C. trachomatis total inclusion area by high-content imaging, normalised to DMSO; details: total inclusion area; 28.5 h, 10 µM; inhibitor
T1 construct: L2/434/Bu GFP intracellular growth in HeLa cells
In short: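 Imaging read-out: GFP inclusions and Hoechst nuclei captured by high-content imaging after fixation. Inclusion area/number = chlamydial growth; nuclei count = host cell viability. MIC calculated per earlier method.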

Compound | % of control remaining
c1ccc2c(c1)CCN(Cc1ccc3ccccc3c1)C2 [CBK126397] | 81.6683
Oc1ccccc1-c1ccnc(SC(F)F)n1 [CBK021971] | 52.8053
CN(Cc1cccn1C)C(=O)c1cc(-c2cnn(C)c2)[nH]n1 [CBK283325] | 109.312
CCCN1CCC(NC(=O)Cn2nnc3ccccc3c2=O)CC1 [CBK305581] | 55.9859
COc1c(C)cnc(CNC2CCCN(Cc3noc(C)n3)C2)c1C (centres unmarked) [CBK305350] | 43.0383
Cc1ccc(C#N)c(NCc2ccccc2CN2CCCC2CO)n1 (centres unmarked) [CBK304076] | 89.28
COCC(=O)N1CCC2(CC1)CC(=O)c1cc(Cl)cc(Cl)c1O2 [CBK156440] | 107.848
O=S(=O)(Nc1cccc(OC(F)(F)F)c1)c1ccc(N2CCNCC2)c2ccccc12 [CBK003935C] | 53.6315
O=C(O)CN(c1ccc(F)cc1)S(=O)(=O)c1ccc2c(c1)OCCO2 [CBK287096] | 111.219
O=C(NCCc1cc2ccccc2[nH]1)Nc1cccc2ccccc12 [CBK269246] | 65.7286
COc1ccc(-c2ccc(C(=O)N(C)C)c(N(C)C(C)=O)n2)cc1 [CBK076500] | 98.9593
COc1cccc(-c2ccc(NC(=O)c3ccc(Cn4cnnn4)cc3)cc2)c1 [CBK285850] | 99.7565
CC(C)OCC(=O)NC1CCCc2nc(N3CCC(CO)CC3)ncc21 (centres unmarked) [CBK307520] | 63.9851
COc1cccc(CN2CCCC(NC(=O)NCc3cccs3)C2)c1 (centres unmarked) [CBK307357] | 64.4663
Nc1ncc(-c2ccc(Cl)cc2)nc1-c1ccc(CCC(=O)O)cc1 [CBK064063] | 99.6343
O=C(O)c1cc(NC(=O)c2ccco2)cc(C(=O)O)c1 [CBK263360] | 89.1267
CCCC(=O)N1CCC(c2cc3n(n2)[C@@H](C(F)(F)F)C[C@@H](C)N3)C1 (some centres unmarked) [CBK282237] | 96.7703
Nc1ncnc(N(c2ccccc2)c2ccccc2)n1 [CBK288139] | 99.1416
O=C(O)CCSCC(=O)c1ccc(OC(F)F)cc1 [CBK286991] | 120.722
CCCCOC(=O)c1ccc(NC(=O)NCCc2cccs2)cc1 [CBK043381] | 78.6284
COc1cc(-c2cncc(N(CCO)CCO)n2)cc(OC)c1OC [CBK065544] | 101.811

Compound | % of control remaining
O=C(Nc1ccc(N2CCN(Cc3ccccc3F)CC2)cc1)c1cccnc1 [CBK267250] | 119.01
CCc1nnc(NS(C)(=O)=O)s1 [CBK062197] | 87.416
Cc1cc(CNC(=O)C(C)Cn2cccn2)on1 (centres unmarked) [CBK281486] | 82.2276
CCOC(=O)N1CCN(S(=O)(=O)c2ccc3[nH]c(=O)oc3c2)CC1 [CBK304679] | 112.422
CCc1nn(CC(=O)NC(C)(C)C)c(=O)c2cc3sccc3n12 [CBK284056] | 101.083
CC(C)C(NC(=O)c1ccc(CS(C)(=O)=O)cc1)c1ccc(C(C)(C)C)cc1 (centres unmarked) [CBK296705] | 95.5905
O=C(Nc1nc2ccccc2[nH]1)C1c2ccccc2Oc2ccccc21 [CBK265454] | 90.5968
c1csc(C2CN(c3nccn4cnnc34)CCO2)c1 (centres unmarked) [CBK306380] | 64.4888
OCc1ccccc1-c1cc(N2CCN(Cc3cccnc3)CC2)n2nccc2n1 [CBK037105] | 136.387
Cc1cccc(C2(O)CCN(C(=O)c3cc(C(C)C)nn3C)CC2)c1 [CBK282163] | 85.6115
CN(C)CCN1C(=O)C2C3c4ccccc4C([N+](=O)[O-])(c4ccccc43)C2C1=O (centres unmarked) [CBK269286] | 82.3871
CC(C)c1ccc(S(=O)(=O)NCc2csc3ccccc23)cc1 [CBK044662] | 89.4717
CC(C)c1cc2c(s1)NC(c1ccccc1)NC2=O (centres unmarked) [CBK288209] | 96.9013
CC(=O)Nc1nc(-c2cccs2)c(-c2cc(C)no2)s1 [CBK284493] | 113.433
C=CCn1nnc(NC(=O)COc2ccccc2)n1 [CBK288131] | 108.562
COCCCn1c(=O)[nH]c2ncc(-c3cccnc3)nc21 [CBK064929] | 136.953
COc1ccc(-c2c(C(F)(F)F)oc3c(CN4CC(C)OC(C)C4)c(O)ccc3c2=O)cc1OC (centres unmarked) [CBK217829] | 103.324
Cn1ccnc1CN1C[C@@H]2CN(C(=O)C3CCCC3)C[C@]2(C(=O)O)C1 [CBK307201] | 70.2847
Cc1noc2nc(-c3ccco3)cc(C(=O)NCc3nc4ccccc4[nH]3)c12 [CBK295608] | 100.759
O=C(COc1ccc(S(=O)(=O)N2CCCCC2)cc1)NCc1ccccn1 [CBK268517] | 113.369
